{"source": "paper PMC4336329", "about": "(PLoS ONE, 2015)", "note": "Hit rate of the full screen: of about 310,000 compounds, about 14,000 (4.5%) showed an effect of 50% or more. Effects have a minus sign here. This is one part of the list.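 Note: peak tail current of the secondary pulse compared with the same well before compound.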"}
{"molecular_target": "human ether-à-go-go-related gene (hERG) potassium channel (human, UniProt Q12809)", "sequence (Q12809 whole entry, looked up)": "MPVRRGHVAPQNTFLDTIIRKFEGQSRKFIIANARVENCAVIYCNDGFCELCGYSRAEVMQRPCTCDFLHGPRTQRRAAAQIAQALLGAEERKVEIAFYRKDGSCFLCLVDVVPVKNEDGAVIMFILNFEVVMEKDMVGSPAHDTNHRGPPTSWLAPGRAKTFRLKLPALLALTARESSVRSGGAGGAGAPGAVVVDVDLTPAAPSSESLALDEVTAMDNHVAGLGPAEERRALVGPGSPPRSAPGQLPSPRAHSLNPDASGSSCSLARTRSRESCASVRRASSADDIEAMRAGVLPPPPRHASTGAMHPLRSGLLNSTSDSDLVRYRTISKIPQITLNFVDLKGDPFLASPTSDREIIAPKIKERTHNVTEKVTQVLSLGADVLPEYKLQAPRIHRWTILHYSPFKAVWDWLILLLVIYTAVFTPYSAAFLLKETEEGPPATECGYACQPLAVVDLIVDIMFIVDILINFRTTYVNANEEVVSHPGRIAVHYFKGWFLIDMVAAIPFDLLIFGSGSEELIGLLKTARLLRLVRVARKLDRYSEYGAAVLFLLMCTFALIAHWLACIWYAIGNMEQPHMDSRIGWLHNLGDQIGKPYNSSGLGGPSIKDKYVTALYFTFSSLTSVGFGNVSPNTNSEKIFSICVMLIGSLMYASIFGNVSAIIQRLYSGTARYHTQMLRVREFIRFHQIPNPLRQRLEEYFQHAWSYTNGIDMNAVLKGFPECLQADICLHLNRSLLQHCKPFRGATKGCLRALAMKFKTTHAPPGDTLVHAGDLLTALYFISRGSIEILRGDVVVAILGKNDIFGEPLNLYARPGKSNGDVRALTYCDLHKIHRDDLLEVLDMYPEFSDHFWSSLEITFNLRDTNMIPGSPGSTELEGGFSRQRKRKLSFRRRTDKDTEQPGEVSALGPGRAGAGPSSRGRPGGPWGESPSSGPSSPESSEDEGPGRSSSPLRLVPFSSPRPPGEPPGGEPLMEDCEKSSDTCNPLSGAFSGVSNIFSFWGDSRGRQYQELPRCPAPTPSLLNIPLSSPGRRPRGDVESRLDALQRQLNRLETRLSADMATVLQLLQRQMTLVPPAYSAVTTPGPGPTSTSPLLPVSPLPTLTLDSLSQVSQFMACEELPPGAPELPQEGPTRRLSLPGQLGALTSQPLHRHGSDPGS", "assay": "primary screen, population patch clamp on CHO cells stably expressing hERG", "units": {"hERG current change (%, negative = inhibition) at 10uM": "%"}}
{"smiles": "Cc1ccc(C)c(NC(=O)c2ccccc2Sc2ccc([N+](=O)[O-])cc2Cl)c1", "hERG current change (%, negative = inhibition) at 10uM": 15.5}
{"smiles": "COc1cccc(NC(=O)CN(C)CC(=O)Nc2ccc(C)c([N+](=O)[O-])c2)c1", "hERG current change (%, negative = inhibition) at 10uM": -15.8}
{"smiles": "COc1ccc(NC2CCCN(C(=O)c3ccccc3N3CCOCC3)C2)cc1OC", "note": "(stereo not drawn)", "hERG current change (%, negative = inhibition) at 10uM": 8.44}
{"smiles": "C/C(Cn1nnc2ccccc21)=N\\NC(=O)c1ccc(Br)cc1", "hERG current change (%, negative = inhibition) at 10uM": -18.3}
{"smiles": "COCCCn1c(C(=O)N2CC(C)OC(C)C2)cc2c(=O)n3ccccc3nc21", "note": "(stereo not drawn)", "hERG current change (%, negative = inhibition) at 10uM": -9.36}
{"smiles": "Oc1[nH]c(=S)sc1C=C1N=c2ccccc2=N1", "hERG current change (%, negative = inhibition) at 10uM": 20.7}
{"smiles": "COc1cccc(C(=O)NCCN2C(=O)S/C(=C/c3cccs3)C2=O)c1OC", "hERG current change (%, negative = inhibition) at 10uM": -19.6}
{"smiles": "CCCOc1ccc(-c2csc(N)n2)cc1[N+](=O)[O-]", "hERG current change (%, negative = inhibition) at 10uM": 5.06}
{"smiles": "CCOC(=O)N1CCC2(CC1)C(C(=O)C13CC4CC(CC(C4)C1)C3)C2(C#N)C#N", "note": "(stereo not drawn)", "hERG current change (%, negative = inhibition) at 10uM": -18.2}
{"smiles": "CSc1ccccc1C(=O)C1CCCN(C(=O)c2csnn2)C1", "note": "(stereo not drawn)", "hERG current change (%, negative = inhibition) at 10uM": -18.1}
{"smiles": "Cc1oc2nc(SCC(=O)N3CCCCC3)nc(N)c2c1C", "hERG current change (%, negative = inhibition) at 10uM": -12}
{"smiles": "CC(=O)Nc1ccc(S(=O)(=O)NCc2ccncc2)cc1", "hERG current change (%, negative = inhibition) at 10uM": -7.33}
{"smiles": "O=C(Nc1ccc(Cl)cc1)OCCn1nnnc1C(c1ccccc1)N1CCOCC1", "note": "(stereo not drawn)", "hERG current change (%, negative = inhibition) at 10uM": -36.5}
{"smiles": "Cc1ccc(NC(=O)C2(S(=O)(=O)c3ccc(Cl)cc3)CC2)c(Br)c1", "hERG current change (%, negative = inhibition) at 10uM": -1.09}
{"smiles": "O=C(NCc1ccccc1Cl)c1ccc(Br)o1", "hERG current change (%, negative = inhibition) at 10uM": 14.9}
{"smiles": "O=C(c1cc2ccccn2n1)N1CCC2(CC1)OCCO2", "hERG current change (%, negative = inhibition) at 10uM": 0.189}
{"smiles": "CC[C@H](C)[C@H](NC(N)=O)C(=O)Nc1ccc(C)cc1", "hERG current change (%, negative = inhibition) at 10uM": 1.35}
{"smiles": "COc1ccc(OC2CCN(S(=O)(=O)c3ccccc3)CC2)cc1", "hERG current change (%, negative = inhibition) at 10uM": -11.6}
{"smiles": "CCCOc1ccc(N2C(=O)C3C(C(C)C)NC4(C(=O)c5ccccc5C4=O)C3C2=O)cc1", "note": "(stereo not drawn)", "hERG current change (%, negative = inhibition) at 10uM": -0.496}
{"smiles": "O=C1c2ccccc2C(=O)N1CCCCN(C(=O)c1cccc([N+](=O)[O-])c1)c1ccc(Cl)cc1", "hERG current change (%, negative = inhibition) at 10uM": -7.96}
{"smiles": "COc1ccccc1NC(=S)N(CCCN1CCOCC1)Cc1cn(C)c2ccccc12", "hERG current change (%, negative = inhibition) at 10uM": -2.2}
{"smiles": "Cc1cccc(C)c1NC(=O)CNC(=O)CNC(=O)c1ccc2c(c1)OCO2", "hERG current change (%, negative = inhibition) at 10uM": -1.78}
{"smiles": "COCCN(C(=S)Nc1cc(C)cc(C)c1)C(C)c1cccs1", "note": "(stereo not drawn)", "hERG current change (%, negative = inhibition) at 10uM": 3.56}
{"smiles": "CC1CCN(CC(=O)c2c[nH]c3ccccc23)CC1", "hERG current change (%, negative = inhibition) at 10uM": -21.5}
{"smiles": "CCOC(=O)C1CCCN(C2=NC(=O)/C(=C/c3ccc(O)c(OCC)c3)S2)C1", "note": "(stereo not drawn)", "hERG current change (%, negative = inhibition) at 10uM": -27}
{"smiles": "Cn1nc(C(C)(C)C)cc1NC(=O)Nc1cc(Cl)cc(Cl)c1", "hERG current change (%, negative = inhibition) at 10uM": 13.2}
{"smiles": "CC1CCN(c2nc3c(=O)[nH]c(N)nc3n2[C@@H]2O[C@H](CO)[C@@H](O)[C@H]2O)CC1", "hERG current change (%, negative = inhibition) at 10uM": 13.6}
{"smiles": "O=C(C1CCN(S(=O)(=O)c2ccccc2F)CC1)N1CCc2ccccc21", "hERG current change (%, negative = inhibition) at 10uM": -31.8}
{"smiles": "CCOc1cc(N2CCOCC2)c(OCC)cc1NC(=O)COC(=O)C1CCCN1S(=O)(=O)c1ccccc1F", "note": "(stereo not drawn)", "hERG current change (%, negative = inhibition) at 10uM": -29}
{"smiles": "CCOC(=O)c1cnc2oc3ccccc3n2c1=O", "hERG current change (%, negative = inhibition) at 10uM": 9.66}
{"smiles": "COc1ccc(-c2oc(=O)c3cc(OC)c(OC)cc3c2-c2cc(F)cc(OC)c2)cc1", "hERG current change (%, negative = inhibition) at 10uM": 28}
{"smiles": "COCCNC(C)C(=O)Nc1ccc(Br)cc1.Cl", "note": "(stereo not drawn)", "hERG current change (%, negative = inhibition) at 10uM": 29.6}
{"smiles": "Clc1cccc(CN2CCc3c([nH]c4ccccc34)C2)c1", "hERG current change (%, negative = inhibition) at 10uM": -31.9}
{"smiles": "COc1cc(OC)c2c(-c3ccccc3)cc(=O)oc2c1C(CCN1CCCC(C)C1)c1ccc(N(C)C)cc1", "note": "(stereo not drawn)", "hERG current change (%, negative = inhibition) at 10uM": -30}
{"smiles": "Fc1ccc2[nH]c3c(NCc4ccccc4)ncnc3c2c1", "hERG current change (%, negative = inhibition) at 10uM": 10.5}
{"smiles": "CCN(CC)C(=O)Cn1cc(C(=O)C(=O)NCCc2c[nH]c3ccccc23)c2ccccc21", "hERG current change (%, negative = inhibition) at 10uM": 8.71}
{"smiles": "c1ccc(C2NCCn3cccc32)cc1", "note": "(stereo not drawn)", "hERG current change (%, negative = inhibition) at 10uM": 2.74}
{"smiles": "Cc1ccc(CNc2nc3ccccc3n3cnnc23)cc1", "hERG current change (%, negative = inhibition) at 10uM": -6.53}
{"smiles": "CCOC(=O)c1cc(CC)sc1/N=C/C1=C(O)CC(C)(C)CC1=O", "hERG current change (%, negative = inhibition) at 10uM": -0.911}
{"smiles": "CC(C)(C)OC(=O)N/N=C/c1ccc(Br)cc1", "hERG current change (%, negative = inhibition) at 10uM": 0.944}
{"smiles": "CCc1ccc(N2CC(O)(c3cccs3)[N+]3=C2SCCC3)cc1.[Br-]", "note": "(stereo not drawn)", "hERG current change (%, negative = inhibition) at 10uM": -70}
{"smiles": "Cn1c(CC(=O)Nc2ccccc2)nnc1SCC(=O)Nc1ccc(N2CCOCC2)cc1", "hERG current change (%, negative = inhibition) at 10uM": 25.5}
{"smiles": "Cc1ccc(C)c(NC(=O)C2CCCN(S(=O)(=O)c3cccnc3)C2)c1", "note": "(stereo not drawn)", "hERG current change (%, negative = inhibition) at 10uM": 15.9}
{"smiles": "NNc1ncnc2c1cnn2-c1ccccc1", "hERG current change (%, negative = inhibition) at 10uM": 2.59}
{"smiles": "COc1ccc(-c2cc(=O)oc3cc(OC(C)C(=O)O)ccc23)cc1", "note": "(stereo not drawn)", "hERG current change (%, negative = inhibition) at 10uM": 6.26}
